{"source": "paper PMC6212790", "note": "The list shows a part of the results. At the low end of the ranking, values are background and their order means little."}
{"biological_target": "T1, GST-Rok-C97-191 (UniProt O34857)", "T1 sequence": "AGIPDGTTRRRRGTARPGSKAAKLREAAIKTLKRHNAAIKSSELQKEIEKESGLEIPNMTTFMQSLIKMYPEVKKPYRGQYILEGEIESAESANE", "assay": "protein binding microarray;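 note: rank score from −0.5 (least bound) to 0.5 (best bound)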", "conditions": "Rok is a gene silencer of Bacillus subtilis; high values mean tight binding; most listed sequences are background and not binding sites; double strand, one strand shown", "units": {"binding signal": "E-score"}}
{"sequence": "CGAAAGAC", "binding signal": -0.0876}
{"sequence": "CCCGGTCG", "binding signal": -0.238}
{"sequence": "CGTTTGAA", "binding signal": -0.0956}
{"sequence": "TATAGATA", "binding signal": 0.368}
{"sequence": "GCAAGGTA", "binding signal": 0.106}
{"sequence": "CATTATAA", "binding signal": 0.122}
{"sequence": "ACGCCATA", "binding signal": -0.0598}
{"sequence": "ATGAACTG", "binding signal": 0.088}
{"sequence": "AGACCAGA", "binding signal": -0.278}
{"sequence": "AGAACGAA", "binding signal": 0.0755}
{"sequence": "CCGTGGAA", "binding signal": -0.103}
{"sequence": "GCTAATTA", "binding signal": 0.289}
{"sequence": "ATCGACAA", "binding signal": 0.155}
{"sequence": "GATTCACC", "binding signal": -0.164}
{"sequence": "CCCGTACG", "binding signal": -0.0278}
{"sequence": "GCATTCCA", "binding signal": -0.0351}
{"sequence": "GCCGCCAA", "binding signal": -0.337}
{"sequence": "GATGAAAA", "binding signal": 0.105}
{"sequence": "ATTATGGC", "binding signal": 0.162}
{"sequence": "AGTCTGAC", "binding signal": -0.124}
{"sequence": "CGTTGTCC", "binding signal": -0.0612}
{"sequence": "ATTTGGTC", "binding signal": 0.0459}
{"sequence": "CCGGTTAA", "binding signal": 0.0256}
{"sequence": "GGCGTGAA", "binding signal": -0.14}
{"sequence": "ACAGTAGC", "binding signal": 0.278}
{"sequence": "GACATAGA", "binding signal": 0.134}
{"sequence": "TGAGTGAA", "binding signal": -0.121}
{"sequence": "CTTTCCGA", "binding signal": -0.184}
{"sequence": "TCGTCGAA", "binding signal": 0.0573}
{"sequence": "CAAACCTC", "binding signal": 0.00823}
{"sequence": "GGCTCGAC", "binding signal": -0.166}
{"sequence": "CTCCGAAG", "binding signal": 0.00969}
{"sequence": "ATTGCATC", "binding signal": 0.0538}
{"sequence": "ATCCACAA", "binding signal": 0.026}
{"sequence": "ACATCTTA", "binding signal": 0.121}
{"sequence": "CCGTGACA", "binding signal": -0.0857}
{"sequence": "GAGGTTTA", "binding signal": -0.0543}
{"sequence": "ACTTCACT", "binding signal": -0.0994}
{"sequence": "GCTCAACC", "binding signal": -0.056}
{"sequence": "ACTCCATG", "binding signal": 0.138}
{"sequence": "GACCTGAC", "binding signal": -0.279}
{"sequence": "AAACTGTC", "binding signal": -0.0468}
{"sequence": "GCTACTGA", "binding signal": 0.131}
{"sequence": "GTCGCGCA", "binding signal": -0.0822}
{"sequence": "CGCCTGTC", "binding signal": -0.174}
{"sequence": "TGAAGAAA", "binding signal": -0.00429}
{"sequence": "ATTTATGA", "binding signal": 0.126}
{"sequence": "AGTTCGCA", "binding signal": -0.0687}
{"sequence": "ACTAAGGA", "binding signal": 0.268}
{"sequence": "AGCCGGAG", "binding signal": -0.225}
{"sequence": "GGCACACA", "binding signal": -0.224}
{"sequence": "CGCTCTTC", "binding signal": -0.264}
{"sequence": "ATTGGAGG", "binding signal": -0.105}
{"sequence": "TATCCAAA", "binding signal": 0.207}
{"sequence": "CTATAGTC", "binding signal": 0.122}
{"sequence": "CCGAGCAC", "binding signal": -0.0285}
{"sequence": "ACAACCAA", "binding signal": 0.0769}
{"sequence": "CCCCACGG", "binding signal": -0.457}
{"sequence": "TTAGAAAA", "binding signal": 0.263}
{"sequence": "ATTTGTTC", "binding signal": 0.104}
{"sequence": "AACAGAAT", "binding signal": -0.0178}
{"sequence": "AATGCTAG", "binding signal": 0.11}
{"sequence": "CGCGGCAG", "binding signal": -0.144}
{"sequence": "AACTTAAT", "binding signal": 0.148}
{"sequence": "CACCTCTG", "binding signal": -0.0739}
{"sequence": "AATTATAA", "binding signal": 0.274}
{"sequence": "ACCGGCAT", "binding signal": 0.041}
{"sequence": "ATTACGTA", "binding signal": 0.309}
{"sequence": "AAATGGCC", "binding signal": 0.073}
{"sequence": "ACTGATGC", "binding signal": -0.132}
{"sequence": "CTAACTAG", "binding signal": 0.268}
{"sequence": "TATAGCGA", "binding signal": 0.232}
{"sequence": "CAAGATCC", "binding signal": -0.0974}
{"sequence": "AGGCTGGC", "binding signal": -0.369}
{"sequence": "AAGCCTTC", "binding signal": -0.354}
{"sequence": "GCAACGTA", "binding signal": -0.0118}
{"sequence": "ACCTCCAT", "binding signal": 0.0276}
{"sequence": "CGGACGCA", "binding signal": -0.218}
{"sequence": "CGCATAGC", "binding signal": 0.0397}
{"sequence": "GCTCTGAA", "binding signal": -0.167}
{"sequence": "AGCCGGTC", "binding signal": -0.116}
{"sequence": "GCACACTA", "binding signal": -0.00608}
{"sequence": "ACACGAGC", "binding signal": -0.122}
{"sequence": "CATGATCA", "binding signal": 0.0418}
{"sequence": "ACATGACT", "binding signal": -0.0153}
{"sequence": "GGTTGTTA", "binding signal": 0.191}
{"sequence": "ACACAGCA", "binding signal": 0.194}
{"sequence": "GTAAGATA", "binding signal": 0.229}
{"sequence": "CCTAGTAA", "binding signal": 0.145}
{"sequence": "ACCTAAGA", "binding signal": -0.07}
{"sequence": "CTCTCAAA", "binding signal": -0.0377}
{"sequence": "ATGGTGCA", "binding signal": 0.0667}
{"sequence": "ATATGCAA", "binding signal": 0.28}
{"sequence": "GATCCCCA", "binding signal": -0.243}
{"sequence": "ACTCGTGG", "binding signal": -0.126}
{"sequence": "CGATATAG", "binding signal": 0.238}
{"sequence": "AGAAGGTC", "binding signal": 0.101}
{"sequence": "AGTTAATG", "binding signal": 0.203}
{"sequence": "AGGTGCCG", "binding signal": -0.259}
{"sequence": "CATAGTAA", "binding signal": 0.272}
{"sequence": "AGTGGACC", "binding signal": -0.00869}
{"sequence": "AACCAGCC", "binding signal": -0.0305}
{"sequence": "GAGTAAAC", "binding signal": -0.0218}
{"sequence": "CGACTTTC", "binding signal": 0.077}
{"sequence": "AAGAGAAT", "binding signal": 0.0606}
{"sequence": "ATCGCATA", "binding signal": 0.132}
{"sequence": "CCACATCA", "binding signal": -0.165}
{"sequence": "CCCCCAAG", "binding signal": -0.253}
{"sequence": "CAATTTAA", "binding signal": 0.0656}
{"sequence": "AGTGCCTC", "binding signal": -0.187}
{"sequence": "GTTACGCA", "binding signal": -0.156}
{"sequence": "AGCGGGGA", "binding signal": -0.047}
{"sequence": "TGCATAAA", "binding signal": 0.129}
{"sequence": "CGACCAGA", "binding signal": 0.0621}
{"sequence": "GACGATAA", "binding signal": 0.0437}
{"sequence": "AAATCAGG", "binding signal": 0.0667}
{"sequence": "CGTGCTCC", "binding signal": -0.189}
{"sequence": "AGTCCGGA", "binding signal": -0.113}
{"sequence": "AACGGGGC", "binding signal": -0.174}
{"sequence": "ACTTCTCC", "binding signal": 0.114}
{"sequence": "CCGCGGTA", "binding signal": -0.272}
{"sequence": "AGCATCAT", "binding signal": 0.053}
{"sequence": "CGGCTGCC", "binding signal": -0.193}
{"sequence": "ACCCTAAG", "binding signal": -0.143}
{"sequence": "GTATACAA", "binding signal": 0.31}
{"sequence": "CCCATGTA", "binding signal": 0.141}
{"sequence": "ACAGGACG", "binding signal": -0.135}
{"sequence": "GCTGCGCA", "binding signal": -0.124}
{"sequence": "CCCACCAG", "binding signal": -0.304}
{"sequence": "AGCGCGCT", "binding signal": -0.0438}
{"sequence": "GGATTTGA", "binding signal": 0.0544}
{"sequence": "ATGTCTCA", "binding signal": -0.0457}
{"sequence": "CGCACCAA", "binding signal": -0.0031}
{"sequence": "AACAGCAT", "binding signal": -0.0295}
{"sequence": "AGCCGTCG", "binding signal": -0.23}
{"sequence": "GTGCCGAA", "binding signal": -0.0547}
{"sequence": "CGCTTCCG", "binding signal": -0.181}
{"sequence": "AAGAGAGG", "binding signal": -0.225}
{"sequence": "ACTCGGGG", "binding signal": -0.0876}
{"sequence": "AATCTCGT", "binding signal": 0.12}
{"sequence": "GAAGGAGC", "binding signal": -0.244}
{"sequence": "CCTCTCAC", "binding signal": -0.0845}
{"sequence": "AGGAACGG", "binding signal": -0.147}
{"sequence": "TAGGACTA", "binding signal": 0.0149}
{"sequence": "TGATGTAA", "binding signal": 0.0416}
{"sequence": "CATTTCCA", "binding signal": -0.0366}
{"sequence": "CTGACTAC", "binding signal": 0.143}
{"sequence": "AGGCGGAG", "binding signal": -0.349}
{"sequence": "CTTTGCCA", "binding signal": -0.225}
{"sequence": "GTACTGCA", "binding signal": 0.119}
{"sequence": "ATGTGGCG", "binding signal": -0.117}
{"sequence": "AAGATCGA", "binding signal": 0.122}
{"sequence": "TCACAAGA", "binding signal": -0.206}
{"sequence": "CAAGAGGC", "binding signal": -0.149}
{"sequence": "CGCTAACG", "binding signal": 0.0204}
{"sequence": "CGTTTGCA", "binding signal": -0.128}
{"sequence": "CGATAACC", "binding signal": 0.00301}
{"sequence": "ATCCAACG", "binding signal": -0.0195}
{"sequence": "CGAATGAG", "binding signal": -0.0259}
{"sequence": "ACTCACAC", "binding signal": -0.0317}
{"sequence": "ACTGTACT", "binding signal": 0.264}
{"sequence": "GAACGAAA", "binding signal": 0.0914}
{"sequence": "AGGGTGGA", "binding signal": -0.247}
{"sequence": "TACATCCA", "binding signal": 0.247}
{"sequence": "CACCTGTC", "binding signal": -0.28}
{"sequence": "GCCAGTCA", "binding signal": -0.202}
{"sequence": "CGCTATGC", "binding signal": -0.0358}
{"sequence": "GATGAACC", "binding signal": -0.13}
{"sequence": "AGTCTGTA", "binding signal": 0.128}
{"sequence": "GAGGGCCC", "binding signal": -0.371}
{"sequence": "CCATGTTA", "binding signal": 0.102}
{"sequence": "GCTACGCA", "binding signal": -0.104}
